# Measured values as given in PubChem BioAssay AID1347417 (National Center for Advancing Translational Sciences (NCATS), 2020).
# Screen size: about 120,000 compounds; about 5,300 (4.4%) were called active. The inconclusive results got no clear call from the source; some entries with a clear call stand among them for comparison. The call rests on the fitted dose curve; in most records, active means well fitted inhibition curve with a large enough effect; inconclusive means small, poorly fitted or top-dose-only effect; inactive means no such curve, though single readings can be large or run the other way. Where the call is inconclusive, the potency comes from a doubtful curve fit.
# Test: qHTS Primary assay for Inhibitors of Plasmodium falciparum Dd2 growth in vitro; further: nearly all actives have a fitted effect of over 65% in size;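 on activity, negative = inhibition: plate controls were DMSO vehicle for no effect and reference drug for full effect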
# Conditions: P. falciparum Dd2 growth, SYBR Green, 72 h; activity, negative = inhibition: at 28.9 µM (top of the series) unless noted; series mostly up to 28.9 µM
# Procedure, shortened: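 Readout: SYBR Green fluorescence, 485 nm excitation, 535 nm emission, after ~16 h lysis at 37C. Before that, Dd2-infected red cells (2.5% hematocrit) grew 72 h with compound, 29 uM top final concentration.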
# Potency means the concentration at half of the fitted maximal effect; tags describe the fitted curve by direction and shape.
Structure (SMILES),Potency,"activity, negative = inhibition"
CC(C)NC(=O)N(C1CC1)C1CCOC2(CCN(C(=O)c3cc4ccccc4[nH]3)CC2)C1 (centres undefined),inactive,–
Cn1cnnc1CC1CCN(S(=O)(=O)c2ccc(F)cc2)CC1,inactive,–
CCCCCn1c(NCc2ccccc2OC)nc2ccccc21,"inconclusive: 10 µM [inhibitor, single point]",–
Cc1cccc(OCC(=O)N2[C@H]3CC[C@@H]2c2cnc(-c4ccccc4)nc2C3)c1,"inconclusive: 3.98 µM [inhibitor, single point]",–
O=S(=O)(N[C@H]1CO[C@H]2[C@@H]1OC[C@@H]2n1cc(CC2CCCCC2)nn1)c1cccs1,"inconclusive: 12.6 µM [inhibitor, partial curve, poor fit]",–
Cc1cnc(C(=O)N2CCn3c(nnc3[C@@H]3C[C@@H](O)CN3Cc3ccccc3)C2)cn1,inactive,–
CCC(=O)N1CCc2cc(Br)cc(S(=O)(=O)N3CCCC(C(=O)NCc4cccc(OC)c4)C3)c21 (centres undefined),"inconclusive: 8.91 µM [inhibitor, partial curve, poor fit]",–
Cc1cccc(CN2CCCN(S(C)(=O)=O)C(c3ccccc3)CC(=O)NCC2)c1 (centres undefined),"inconclusive: 10 µM [inhibitor, single point]",–
Nc1c(C(=O)Nc2ccc(Cl)c(C(F)(F)F)c2)sc2nc(-c3ccncc3)ccc12,"inconclusive: 17.8 µM [inhibitor, single point]",–
Cc1ccc(C(=O)N2CCC3(CC2)CN(C2CCC2)CC3CO)s1 (centres undefined),"inconclusive: 6.31 µM [inhibitor, partial curve, poor fit]",–
CCOC(=O)C1CCN(C(=O)c2ccc3c(c2)sc2nc(-c4ccccc4)cn23)CC1,"inconclusive: 10 µM [inhibitor, single point]",–
c1ccc(CCc2nc3nccc(-c4ccsc4)n3n2)cc1,"inconclusive: 11.2 µM [inhibitor, single point]",–
O=C(c1c[nH]c2cccnc12)N1CCOCC1,inactive,–
COc1ccc(Cn2cc(C(=O)c3ccc(OC)cc3)c(=O)c3cc4c(cc32)OCCO4)cc1,active: 8.91 µM,–
OCC1(Cc2ccc(F)cc2)CCCN(c2nc3ccccc3s2)C1 (centres undefined),inactive,–
COCC(=O)NC[C@H]1CCN(Cc2ccccc2)C[C@H]1N(C)C,"inconclusive: 17.8 µM [inhibitor, single point]",–
O=C1COCCN1C1CCN([S+](=O)([O-])c2cccs2)CC1,inactive,–
Cc1cc(CN2C[C@@H](CO)[C@H](C(=O)NC3CC3)C2)n(C)n1,inactive,–
Cc1nn(C(C)C)c(C)c1CN1CC[C@@H](c2ccc3c(c2)OCO3)[C@H](O)C1,inactive,–
O=C(Nc1ccccc1F)N1CC2CCC(C1)N2Cc1cccc(-c2ccsc2)c1,–,inconclusive: -78.4% [inhibitor]
O=c1cc2c(nn1Cc1ccc(OC(F)(F)F)cc1)CCCCC2,"inconclusive: 11.2 µM [inhibitor, single point]",–
O=C(CCc1ccccc1)N1CCCCCC1c1nc(-c2ccccc2)no1 (centres undefined),inactive,–

Structure (SMILES),Potency,"activity, negative = inhibition"
COc1ccc(-c2cc(N3CCCC(NC(=O)c4cc(OC)cc(OC)c4)C3)n[nH]2)cc1 (centres undefined),"inconclusive: 1.58 µM [inhibitor, partial curve, poor fit]",–
COc1ccc(CCNC(=O)CSc2cn(CCNC(=O)c3ccc(OC)c(OC)c3)c3ccccc23)cc1OC,"inconclusive: 17.8 µM [inhibitor, single point]",–
O=C(NCCC1CCN(C(=O)Nc2ccc(F)cc2F)CC1)c1ccsc1,inactive,–
CCc1ccccc1NC(=O)[C@H](Cc1ccccc1)N1Cc2ccccc2C1=O,inactive,–
Cc1ccc(Nc2ncncc2-c2nc(-c3ccccc3)no2)c(C)c1,"inconclusive: 2 µM [inhibitor, partial curve, poor fit]",–
COc1cccc(NS(=O)(=O)c2cc(-c3cnc(C4CC4)o3)ccc2C)c1,"inconclusive: 17.8 µM [inhibitor, single point]",–
Oc1ccc(-c2cc3c(cn2)CN(Cc2ccccc2)CCN3)cc1F,active: 3.98 µM,–
O=C(NC1CCCCC1)N1CCC(N2CC(OCC3CC3)C23CCOCC3)CC1 (centres undefined),"inconclusive: 11.2 µM [inhibitor, single point]",–
COc1ccc(C(=O)NC2CCN(c3cc(-c4ccccc4)[nH]n3)CC2)c(OC)c1,"inconclusive: 3.98 µM [inhibitor, single point]",–
CCOc1ccc(Nc2oc(/C=C/c3cc(OC)c(OC)c(OC)c3)nc2C#N)cc1,"inconclusive: 17.8 µM [inhibitor, single point]",–
C[S+](=O)([O-])N1CCC2(CC1)C(=O)NN=C2c1cccnc1,"inconclusive: 4.47 µM [inhibitor, partial curve]",–
CCOCCCn1c(SCC(=O)Nc2ccccc2OC)nc2c(oc3ccccc32)c1=O,"inconclusive: 14.1 µM [inhibitor, single point]",–
Cc1ccc(C)c(C(=O)N2CCC(c3nc4c(nnn4Cc4ccccc4)c(=O)[nH]3)CC2)c1,active: 11.2 µM,–
COc1ccccc1C1=Nn2c(nc3sc(C(=O)Nc4ccccc4Cl)c(C)c3c2=O)SC1,"inconclusive: 17.8 µM [inhibitor, single point]",–
Cc1cccc(-n2c(=O)c3c(cc(C)n3C)n(CC(=O)Nc3ccc4c(c3)OCO4)c2=O)c1,"inconclusive: 8.91 µM [inhibitor, partial curve]",–
COc1ccc(OC)c(C2CC(=O)Nc3ccc4ccccc4c32)c1 (centres undefined),"inconclusive: 20 µM [inhibitor, single point]",–
COc1ccc2c(c1)C1(CCN(C(=O)C(C)(C)C)C1)C(=O)N2C (centres undefined),"inconclusive: 20 µM [inhibitor, single point]",–
CCN(C(=O)CCS(=O)(=O)c1cc(Br)cc2c1N(C(=O)C1CC1)CC2)c1cccc(C)c1,"inconclusive: 7.94 µM [inhibitor, partial curve, poor fit]",–
O=C(CCn1c(=O)c2cccn2c2cccnc21)NCc1cccc(Br)c1,"inconclusive: 0.112 µM [inhibitor, full curve, poor fit]",–
CC(=O)c1cc2c(cc1N/C(=N/S(=O)(=O)c1ccc(C)cc1)c1ccc(Cl)cc1)OCO2,inactive,–
Cc1cc(C(=O)N2CCCN(Cc3ccncc3)C(c3ccccc3)CC(=O)NCC2)n(C)n1 (centres undefined),"inconclusive: 12.6 µM [inhibitor, single point]",–
CN(C1CCc2nn(C)c(=O)n2CC1)S(=O)(=O)c1ccc2c(c1)CCC2 (centres undefined),inactive,–

Structure (SMILES),Potency,"activity, negative = inhibition"
CCOc1ccc(NC(=O)c2oc3ccccc3c2NC(=O)C(C)Oc2ccccc2)cc1 (centres undefined),"inconclusive: 11.2 µM [inhibitor, single point]",–
CCOc1ccc(CNC(=O)c2cccc(Nc3nc4ccccc4n4nnnc34)c2)cc1OC,active: 11.2 µM,–
Cc1ccc(C)c(CN2C(=O)c3ccccc3S(=O)(=O)c3ccc(C(=O)N4CCN(Cc5ccccc5)CC4)cc32)c1,"inconclusive: 1 µM [inhibitor, single point]",–
CCN(CC)C(=O)c1cc2c(s1)CCC(C(=O)N1CCN(c3ccccc3)CC1)C2 (centres undefined),"inconclusive: 0.0708 µM [inhibitor, single point]",–
COc1ccc(-n2nc(C3CCCN(C(=O)c4ccc(C)cc4)C3)[nH]c2=O)cc1 (centres undefined),inactive,–
CCN1CCN(c2cc(C)c3cc(NC(=O)c4cc(OC)cc(OC)c4)ccc3n2)CC1,active: 0.398 µM,–
COc1ccc(C(=O)N2CCC(N3C(=O)CCC3C(=O)NCc3ccccc3)CC2)c(C)c1 (centres undefined),inactive,–
CN(C)c1nc(-c2ccccc2)nc2c1CCN(C(=O)C1CC13CCC3)C2 (centres undefined),"inconclusive: 10 µM [inhibitor, single point]",–
CCC(CC)c1cc([C@H]2CN3CC[C@H]2C[C@@H]3CNC(=O)NCc2ccccc2)nc(-c2ccncc2)n1,active: 0.631 µM,–
O=C(NC1CCCN(c2nc3ncccc3o2)C1)c1ccc(F)cc1 (centres undefined),"inconclusive: 31.6 µM [inhibitor, single point]",–
COCc1ccc(CN2CCC(Oc3ccc(C(=O)NC4CCCC4)cc3Cl)CC2)o1,"inconclusive: 6.31 µM [inhibitor, partial curve, poor fit]",–
COc1ccc(-c2nc3ccc(C(=O)NCc4ccc(C)cc4)cc3nc2-c2ccc(OC)cc2)cc1,"inconclusive: 17.8 µM [inhibitor, single point]",–
O=C(N[C@H]1C[C@H]2C(=O)NC[C@@H](CCC(=O)N3CCc4ccccc43)N2C1)c1ccc(F)c(Cl)c1,inactive,–
Cc1ccc(NC(=O)CN2C(=O)C(C)(C)c3cc(S(=O)(=O)N4CCCCC4)ccc32)c(Br)c1,"inconclusive: 7.94 µM [inhibitor, partial curve, poor fit]",–
N#Cc1ccc(CN2C[C@@H]3C(=O)N(CCN4CCc5ccccc5C4)C(=O)[C@@H]3C2)cc1,"inconclusive: 0.562 µM [inhibitor, full curve, poor fit]",–
Cc1nc(-c2c3n(c(=O)n(CC(=O)NCCCc4ccccc4)c2=O)CCCC3)no1,inactive,–
CC1CCN(C(=O)c2ccc(NC(=O)c3nsc4ccccc34)cc2)CC1,–,inconclusive: -82.8% [inhibitor] [at 5.79 µM]
Cc1cccc(NC(=O)Cn2cc(C(=O)c3ccccc3)c3ccccc32)c1C,"inconclusive: 8.91 µM [inhibitor, partial curve, poor fit]",–
Cc1ccc(CNC(=O)NCCc2ncc(C)n2Cc2ccc(F)cc2)cc1,"inconclusive: 1.78 µM [inhibitor, full curve]",–
Cc1c(C(=O)Nc2cccc(Cl)c2)oc2ccc(S(=O)(=O)N3CCOCC3)cc12,"inconclusive: 10 µM [inhibitor, single point]",–
